Test results published in the supplement of paper PMC10126150.
Values marked as one replicate rest on one cluster of the flow cell; about a third of the high ones do not repeat.

Tested on: ATP
Assay: switch fluorescence ratio, 500 uM ATP over buffer (Cy3 cluster intensity, sum of 5 cycles each) (fold (ratio)); higher = stronger signal-on switching upon ATP binding; sequences stand for … in TCGTCGGCAGCGTCAGATGTGTATAAGAGACAGTTTTTTTTTTTTTTTTTTTTTTTTT…TC
Conditions: aptamer strand: ATP DNA aptamer (quencher-CACCTGGGGGAGTATTGCGGAGGAAGG + anchor), 100 nM annealed; ATP concentration: 500 uM; one replicate
How it was run: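 Switching-strand clusters labelled with Cy3 on a modified Illumina MiSeq flow-cell were annealed to 100 nM quencher-labelled ATP aptamer, imaged in selection buffer, and re-imaged after 15 min with 500 uM ATP at 22 °C. This was done over five cycles with NaOH stripping and re-annealing in between. The fluorescence ratio is summed target-cycle over summed buffer-cycle Cy3 intensity per cluster, averaged per switch-domain sequence, excluding clusters outside 100-1000 RFU.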
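Note: ATP exposure 15 min at 22 °C before imaging.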

Sequence	switch fluorescence ratio
AACCCTAGTT	1.02
GCTTCCGGCT	1.07
AGCTCGCTGG	1.02
GTGCAAGGGA	1.01
TACTCGCCTT	1.15
ATCAAGGCGT	0.991
GCCCCGTAAT	1.85
TCCGTCATAG	0.974
TGCTTTTGAC	1.06
GCGCTTTCGT	0.951
CTTCTGGTAA	1.03
AGTGTGGAG	1.05
GGAATGGTGA	1.04
TAAACTGTGC	1
GGGGGTAGAT	1.04
AGTCATGGTC	1.02
TTTTATACAC	1.03
CGTTCCCACC	0.982
GCGGCCCAAC	1.02
AAAATGGTCG	0.995
GTTGGACCAC	0.995
CGCTCAGATT	1
GCGACTAAGC	0.983
GTTGGCGTAG	1.03
CGAGCCTATT	1.06
TTCAATTTTG	1.02

Sequence	switch fluorescence ratio
GATCAGGATT	0.986
CGGGGGTCAC	1.03
ACCAATAAGG	0.98
CCTGTGTTCA	1.03
CTGGACAGGG	0.987
GCTACAGGTC	1.04
CCGTACACA	1.16
GGTCAGGCTT	0.954
TTATTTGCAC	1.06
CATGGACCCG	0.967
TAATAACTA	1.01
GGGATCCTAG	1.01
ATACTAAGGA	0.995
TGTGTGAG	0.976
GCAACGTGGA	0.999
ATCCTGTGGG	1.03
CTGTGAGAGT	0.976
AGGTTCGGGG	1.01
ATCTTTTTTT	1.01
TCCGAGCACT	5.01
GGACATAGT	0.97
TAGATGGAG	1.06
GATCGAAGGC	0.976
GGTTACAGCC	1.02
TCGTCGAAAG	1.01
CTGGCACTTT	0.985

Sequence	switch fluorescence ratio
GGTTCATCCA	1.02
TAGAGTACGG	0.987
ACACTTGGTT	1.06
CGCGGACAGC	1.03
AAAACCTATA	1.08
AGACGATTAA	0.936
TGAGGCAAGT	1.36
GAGGCAGCAG	1.07
GAATGCTTCA	0.964
TTGGTATAAA	1.03
CTGAAGTGTG	1.03
CTCGTCAAGG	1.11
TTAGTTCGGA	0.939
GGTAGTTAAC	1.04
AGGGGAAAA	0.943
CTAATCGGCG	1.01
GTGGGTTCAA	1.01
CCCTCAAACG	1.02
CGTCCTGAGT	1.02
CTTGTTACGG	0.983
TCCCGGGAAC	1.01
TGAATAACGA	1.01
AAACTGGGAC	1
TCGTGTTGCG	1.05
GGATGTGGTG	0.989
TGAATGCCAA	1.02

Sequence	switch fluorescence ratio
GGAGTGCACA	0.96
ACTGGGTACA	1.02
CAGGTGACGT	1.04
TCTGAAGCCG	1.05
AACACTGTAA	1.2
TCGTACGGAG	1.01
ATGAAAGGCG	1.04
AGAACATTTT	1.03
CAATTAATGC	1.03
ATTGGCTCCT	1.03
TGTGGTATCC	0.984
AGGATAGCAG	0.991
TATTGCGACT	0.987
GTCGTAGACA	1.01
TTCTAAGGT	1.06
CGTCTAACCC	0.984
ATTAATGGT	1.01
CGTCAAATC	0.997
CGCCCTTTTT	1.03
CGATGCTCT	1.06
CATAGGCTC	0.993
ATCGGTTTT	0.989
GGCGACGTTG	0.987
ACATTAGAAC	1.02
GTGGGTTCAC	0.963
ATGTGCTGCA	0.962

Sequence	switch fluorescence ratio
CCTGCCCCCT	1.14
CAACTCCTAA	1.06
TAGATGGCTC	0.995
ATAATCATAT	1.01
TTCACGGAC	1.72
ATCTGTTGCA	1.09
GTTCTTGTTG	0.996
TAAAGCGAGA	1.02
AGCGACTCCT	1.49
TTTGTTGTCG	0.971
TGTGTAGATG	1.02
TAAGGTCAGC	0.978
ATTCGTTTAG	1.02
ATTGTGACAT	0.994
GTTTCTTGTT	1
ACAAGGTGTA	1.06
AAGTAGTAAT	1.01
AATCATGCGT	0.998
TAGCATTATC	1.89
CAGCTCTCGA	1.01
CGCTTCATTG	1.04
TTATTGCTAC	1.04
GAATCAAACT	1.07
CGCAATGAAA	1.36
TCCGGTACTA	1.2
ATTAGTTCCA	1.01

Sequence	switch fluorescence ratio
GGACCACTAC	1.38
GCGAGCCTCT	0.993
GAGGTGGCTA	1.02
TAACAGGGGC	1.13
TTATTACTAT	0.972
CACGCCTGTT	1.01
TAGTAATTT	0.975
TATATCATAC	1.05
AGACGGTTGG	1.01
TACCCTCTGA	1.04
AAAAAGTAAT	1.04
TCCAAAATGC	1.76
TGATGGAAC	1.01
CTGACATTCA	1.05
TCTTGTCCTA	0.993
AACACTCTTT	1
GGCGCTGTAG	0.977
ATGCTGATTT	1.02
GGACTCAGAG	0.913
ATCGGAAGAG	0.976
CAACCGGCTA	1.2
CTTAGAAATC	1.01
ACCCTTTATA	1.03
GTTGTCAGG	0.986
GGTATGATTT	0.993
ACACGAAACA	1.18

Sequence	switch fluorescence ratio
ATAGCTATAG	1.11
ACACATGGGT	1.01
TCTCAACAAT	1.6
ATGTCTCATG	0.999
GATTTTTG	0.997
GCACACCTGG	1.09
CGTTGAATTA	1.01
TGTGTGCCCT	1.23
TGTTGGTCT	0.978
AACCGTATTA	1.1
AAGCGTGGG	1.03
TACGCTTAGT	1.03
CTAAGGGCTG	1.01
CTAGACAGTA	1.04
TGGGATGTAA	1.03
AAAAGTGC	1.07
AGACGACAGT	0.993
ATAGATGCAC	1.03
ACTCCCTC	1.76
CCCGGCCTAT	1.02
CGGGACTAAC	1.08
AAGATTTTCA	0.981
GCGTAGTGGC	1
ACGTTTTTAA	0.994
TGTTGACGCC	0.982
AGTATGCGCA	1.03

Sequence	switch fluorescence ratio
ACGAGCGACT	1.08
TTCACGAGGG	0.965
CTGCGAACTT	1.03
GTTAAGGA	1
AGGCATTACT	1.76
TTTATAGTTG	0.982
AAGCGTGCGT	0.99
ATTATCCTG	1.06
CACTCGGTAT	1.02
TTATCGGTAG	0.998
ACCTGAACT	1.59
AATCAAGCAA	2.31
TATGTTATCT	1
CCCTCTGTTG	1.14
TGGCAGTCGA	1.05
TAACTCGTG	0.985
CACCAAATGC	1.99
GTACTCTTT	0.993
CCGAAGCCGT	1.72
